Test results as given in article PMC4336329 (PLoS ONE, 2015).
Screen size: about 310,000 compounds; about 14,000 (4.5%) showed an effect of 50% or more. The effect is printed as a negative number. Some of the results follow.

The compounds below were run against human ether-à-go-go-related gene (hERG) potassium channel (human, UniProt Q12809) (assay: primary screen, population patch clamp on CHO cells stably expressing hERG).
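Further: peak tail current of the secondary pulse compared with the same well before compound.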

human ether-à-go-go-related gene (hERG) potassium channel, sequence (Q12809 whole entry, looked up): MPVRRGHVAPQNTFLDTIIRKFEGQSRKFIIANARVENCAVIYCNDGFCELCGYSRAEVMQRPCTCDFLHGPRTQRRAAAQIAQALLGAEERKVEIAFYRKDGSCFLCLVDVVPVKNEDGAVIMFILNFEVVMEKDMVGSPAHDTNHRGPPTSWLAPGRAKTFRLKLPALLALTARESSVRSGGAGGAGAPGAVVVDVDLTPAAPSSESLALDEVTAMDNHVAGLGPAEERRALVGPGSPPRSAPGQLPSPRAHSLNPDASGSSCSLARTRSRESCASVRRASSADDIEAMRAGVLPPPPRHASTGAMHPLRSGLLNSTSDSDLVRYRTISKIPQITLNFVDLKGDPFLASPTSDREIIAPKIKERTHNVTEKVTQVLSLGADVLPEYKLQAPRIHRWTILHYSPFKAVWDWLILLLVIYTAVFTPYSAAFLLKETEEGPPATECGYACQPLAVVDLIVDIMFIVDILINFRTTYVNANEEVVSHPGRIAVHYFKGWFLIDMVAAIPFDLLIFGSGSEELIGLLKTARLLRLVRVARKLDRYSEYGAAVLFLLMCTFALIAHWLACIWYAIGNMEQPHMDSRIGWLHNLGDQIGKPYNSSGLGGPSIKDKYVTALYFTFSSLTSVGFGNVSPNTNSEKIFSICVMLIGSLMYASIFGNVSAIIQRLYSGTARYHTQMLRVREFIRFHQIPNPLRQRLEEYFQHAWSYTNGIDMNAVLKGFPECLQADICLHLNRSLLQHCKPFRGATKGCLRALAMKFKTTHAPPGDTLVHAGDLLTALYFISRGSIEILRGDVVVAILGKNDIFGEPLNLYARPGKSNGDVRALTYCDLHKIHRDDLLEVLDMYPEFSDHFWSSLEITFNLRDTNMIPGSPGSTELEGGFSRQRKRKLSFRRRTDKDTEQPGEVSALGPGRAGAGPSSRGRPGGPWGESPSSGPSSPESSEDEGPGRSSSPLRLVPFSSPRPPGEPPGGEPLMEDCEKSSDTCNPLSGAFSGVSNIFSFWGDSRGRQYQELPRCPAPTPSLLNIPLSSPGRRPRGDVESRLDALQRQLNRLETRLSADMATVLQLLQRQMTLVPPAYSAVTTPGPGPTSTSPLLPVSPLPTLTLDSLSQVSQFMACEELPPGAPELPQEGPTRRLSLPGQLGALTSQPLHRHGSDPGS

Row | SMILES | hERG current change (%, negative = inhibition) at 10uM [%]
1 | COc1ccc(C2CC(C(F)(F)F)n3nc(CO)c(Cl)c3N2)cc1OC (centres unmarked) | 16.5
2 | COCCNC(=O)COc1cccc2c1OC(C)(C)C2 | 24.5
3 | COc1ccc(-n2nnnc2/C=C\Nc2ccccc2C(=O)c2ccccc2)cc1 | 6.94
4 | Cc1cccc(N2C(=O)C3C4C=CC(C5CC45)C3C2=O)n1 (centres unmarked) | 10.6
5 | C/C(=N\OCc1ccccc1)c1c(O)cc(C(C)C)n(-c2ccccc2)c1=O | -3.54
6 | CCOc1cc(C(=O)Nc2ccc(S(=O)(=O)Nc3cnc4ccccc4n3)cc2)cc(OCC)c1OCC | 5.11
7 | COc1ccc(C(=O)Nc2cccnc2)cc1OC | 12.3
8 | CC(NC(=O)CSCc1ccccc1Br)c1ccccc1 (centres unmarked) | -12.3
9 | CCCN(CCC)C(=O)Cn1c(=O)c2sccc2n2c(=S)sc(-c3ccccc3)c12 | 13.3
10 | Cn1c(CNC(=O)CCNC(=O)c2cccc(Cl)c2)cc(=O)n(C)c1=O | 18.7
11 | CN1C(C)(C)CCCC1(C)C.O=C(O)C(O)C(O)C(=O)O | 8.57
12 | CC(C)(Oc1ccc(Cl)cc1)C(=O)OCn1nnc2ccccc2c1=O | 16.7
13 | CCS(=O)(=O)N1Cc2ccccc2CC1C(=O)Nc1ccc(F)c(F)c1F (centres unmarked) | 6.02
14 | Nc1nc2n(n1)C(c1ccco1)CC(c1ccc(Cl)cc1)N2 (centres unmarked) | -11.1
15 | C/C(O)=C(\C#N)C(=O)Nc1cc(Br)ccc1Br | 10.4
16 | Cc1ccccc1CN(C)C(=O)[C@H](Cc1ccccc1)NC(=O)c1ccco1 | -4.19
17 | CCc1ccc(C(=O)Nc2ccc(OC)c(S(=O)(=O)N3CCOCC3)c2)cc1 | -37.2
18 | Cc1ccc(Nc2nc(N)c([N+](=O)[O-])c(N3CCC(C)CC3)n2)cc1C | 7.13
19 | CC1CN(C(=O)CN2C(=O)NC3(CCCCCC3)C2=O)CC(C)O1 (centres unmarked) | 16
20 | CCn1ncc(Br)c1C(=O)Nc1ccc(C(C)C)cc1 | 9.74
21 | CCCCC1CCC(C(=O)N(C)CC(=O)Nc2cccc(F)c2)CC1 (centres unmarked) | 12.9
22 | COC(=O)C1=Nc2ccccc2/C1=C\c1c(O)n(-c2ccc(OC)cc2)c(=O)[nH]c1=O | -1.33

Row | SMILES | hERG current change (%, negative = inhibition) at 10uM [%]
23 | Cc1csc2ncc(C(=O)NCc3ccc4c(c3)OCO4)c(=O)n12 | -10.7
24 | CCC(C)(C)NC(=S)Nc1ccc(-c2nc3ccc(C)cc3s2)cc1 | 10.1
25 | CC(=O)c1cccc(NC(=O)c2ccc(NC(=O)CCS(=O)(=O)c3cccs3)cc2)c1 | 15.8
26 | O=c1c(N2CCCCC2)coc2ccccc12 | 17.5
27 | Cc1ccc(S(=O)(=O)N2CCC3(CC2)OCCO3)s1 | 8.41
28 | CCN(CC)Cc1c(C(=O)OC(C)C)nnn1-c1nonc1N | 7.56
29 | COc1ccccc1[C@@]1(C)ON(c2ccccc2C(F)(F)F)C1=O | 6.06
30 | O=C(Nc1cccc(Cl)c1N1CCOCC1)c1cccs1 | -23.5
31 | CC(Oc1ccc2ccc(=O)oc2c1)C(=O)NC(Cc1c[nH]c2ccc(O)cc12)C(=O)O (centres unmarked) | 6.42
32 | Cc1ccnc2nc(C(=O)OCCOc3ccc(F)cc3)nn12 | -35.6
33 | COc1ccc(-n2c(O)c(C=NCCCn3ccnc3)c(=O)[nH]c2=O)cc1 | 14.1
34 | O=C(NCCO)C(=O)NCC1OCCCN1S(=O)(=O)c1cc(F)ccc1F (centres unmarked) | 13.6
35 | O=C(Oc1ccc([N+](=O)[O-])cc1)c1cc(-c2ccccc2)nc2ccccc12 | 8
36 | Cc1nn(Cc2ccccc2)c(C)c1NC(=O)CSc1nc2c(c(C(F)(F)F)n1)CCc1ccccc1-2 | -20.5
37 | O=C(O)c1ccc(-c2cccc([N+](=O)[O-])c2)o1 | 12.4
38 | Cc1nc2ccccc2nc1SCC(=O)N1CCC(C)CC1 | 1.12
39 | CCC(=O)N1c2ccccc2NC2=C(C(=O)CC(C)(C)C2)C1c1cccnc1 (centres unmarked) | 20.8
40 | CC(=O)Nc1c(C(=O)C2CC2)oc2ccccc12 | -7
41 | CC(=O)Nc1ccc(NC=C(C#N)C#N)cc1 | -9.27
42 | Cc1ccc(OCCC(=O)OCC(=O)N2CCN(S(=O)(=O)c3ccc(Cl)cc3)CC2)cc1 | -0.425
43 | CCOC(=O)c1c(-c2ccc(C)o2)csc1NC(=O)CSc1nncs1 | -16.1
44 | CNC(=O)c1cccc(NC(=O)c2ccccc2OCc2ccccc2)c1 | -2.21

Row | SMILES | hERG current change (%, negative = inhibition) at 10uM [%]
45 | COc1ccc(S(=O)(=O)NCC(c2ccc(C)cc2)N2CCN(C)CC2)cc1 (centres unmarked) | -51.9
46 | Cc1c(/C=N\NC(=O)c2ccc([N+](=O)[O-])cc2)cnn1C | -7.03
47 | CCn1c(SCC(=O)N=Nc2c(O)[nH]c3ccccc23)nnc1-c1ccc(C(C)(C)C)cc1 | -5.11
48 | O=C(OCC(=O)N(C1CCCCC1)C1CCCCC1)c1ccc(Cl)nc1 | 4.45
49 | CCN(CC)C1=CC(=[N+]2CCCC2)CC(C)(C)C1.[I-] | -4.08
50 | CCn1c(SCC(=O)N/N=C/c2cc(OC)c(O)c(OC)c2)nc2ccccc21 | -19.2
51 | CC(=O)N1c2ccc(S(=O)(=O)N3CCCCC3)cc2CC1C(=O)Nc1ccc(F)cc1C (centres unmarked) | -13.3
52 | Cc1ccccc1-n1cnnc1SCC(=O)N1CCN(c2ccccc2)CC1 | -57.7
53 | CCOC(=O)C1=C(C)NC2=C(C(=O)CCC2)C1c1cc(OC)ccc1OC (centres unmarked) | -6.22
54 | COc1ccc(N2CCN(CC(=O)Nc3ccc(C)cc3)CC2)cc1 | -18.7
55 | c1cnc(N2CCN(Cc3ccc4c(c3)OCO4)CC2)cn1 | -21.7
56 | Cc1ccc(S(=O)(=O)NC(C(=O)OCC(=O)NC2CCS(=O)(=O)C2)C(C)C)cc1 (centres unmarked) | 9.01
57 | Cc1ccccc1OCC(=O)NNC(=O)c1cc(S(=O)(=O)N2CCOCC2)ccc1N1CCCC1 | 3.34
58 | OCCCn1c(C2CCCN2c2nc(-c3ccc(Cl)cc3)cs2)nc2cc(Cl)c(N3CCCCC3)cc21 (centres unmarked) | 3.24
59 | Nc1c(C2=NCCO2)nnn1Cc1ccccc1 | 17.6
60 | COc1cc(/C=C(/NC(=O)c2ccccc2)C(=O)Nc2cccc(O)c2)c([N+](=O)[O-])cc1OC | 0.394
61 | CCCOC(=O)Nc1nc(-c2ccc(C)cc2)c(C)s1 | 17.2
62 | C#CCCOC(=O)N1C2=NC(C(=O)OC)=C(C(=O)OC)[C@@H]3N(CC=C)c4ccccc4[C@]23C[C@H]1C(=O)OC | -9.66
63 | CCOC(=O)c1ccc(N2CCCCC2)c(NS(=O)(=O)c2ccc(C)cc2)c1 | 9.39
64 | COc1cc(C2Nc3cc(Cl)c(S(N)(=O)=O)cc3S(=O)(=O)N2)ccc1OCc1ccccc1 (centres unmarked) | -1.49
65 | CNC(=O)COc1coc(CN2CCN(c3ccccc3F)CC2)cc1=O | 3.7
66 | CCCc1ccc2oc(C(=O)N3CCC(COC)C3)c(C)c2c1 (centres unmarked) | -38.4

Row | SMILES | hERG current change (%, negative = inhibition) at 10uM [%]
67 | CC1CC(C)(C)NC(=S)N1CCC(=O)N1CCN(c2ccccc2)CC1 (centres unmarked) | 0.18
68 | COc1ccc(NC(=O)CS(=O)(=O)Cc2ccccc2)c([N+](=O)[O-])c1 | -14.8
69 | O=C(Nc1cccc(NC(=O)c2cncc(Br)c2)c1)c1cncc(Br)c1 | 8.56
70 | COc1ccccc1-n1c(CNC(=O)c2ccc(S(=O)(=O)N3CCCCC3)cc2)n[nH]c1=S | 20.2
71 | CN1CCN(CC(=O)NN2CC(=O)N(c3ccc(F)cc3)CC2=O)CC1 | 4.34
72 | O=[N+]([O-])c1ccccc1S(=O)(=O)Nc1ccc(-c2ccc(N3CCCC3)nn2)cc1 | -13.5
73 | CCOC(=O)c1c(-c2ccc(Cl)cc2)c(C#N)c(=O)n(N)c1N | 7.15
74 | COc1ccc(C2CC(c3ccccc3)=NN2S(=O)(=O)c2ccccc2)cc1 (centres unmarked) | 14.8
75 | C/C(N)=C(/C#N)C(=O)CSc1nnc(C)n1-c1ccccc1 | 39.9
76 | COc1ccc2cc(C3(C)NC(=O)N(CC(=O)NCC(F)(F)F)C3=O)ccc2c1 (centres unmarked) | 6.12
77 | COc1ccc(NS(=O)(=O)c2ccc(-c3ccccn3)s2)cc1 | -4.6
78 | Cc1ccc(CSc2nnc(Cn3c(=O)sc4ccccc43)n2C)cc1 | -8.26
79 | Cc1[nH]c(C)c(S(=O)(=O)N2CCC(C)CC2)c1C(=O)N1CCCC1 | -11
80 | Cn1c(CC(=O)NCCO)c(Sc2ccccc2)c2ccccc21 | -25.4
81 | C/C=C/C(=O)OCC(=O)Nc1cc(-c2cc(C)c(C)cc2C)nn1-c1ccccc1 | 2.24
82 | CC1CC(C)CN(S(=O)(=O)N2CCCC(C(=O)NC3CCCCC3C)C2)C1 (centres unmarked) | 12.7
83 | Cc1cccc(NC(=S)NCCc2ccc(F)cc2)c1C | 14.5
84 | O=C(CCc1ccccc1)Nc1ccc(Cl)cn1 | -13.7
85 | COc1ccc(N/C=C/C(=O)c2ccc3c(c2)OCO3)cc1OC | -9.42
86 | CCOC(=O)CSc1nnc(CSc2nc3sc4c(c3c(=O)[nH]2)CCC4)n1C | -2.93
